Test results as given in article PMC4336329 (PLoS ONE, 2015).
Screen size: about 310,000 compounds; about 14,000 (4.5%) showed an effect of 50% or more. Effects have a minus sign here. The list shows a part of the results.

Target: human ether-à-go-go-related gene (hERG) potassium channel (human, UniProt Q12809)
Assay: primary screen, population patch clamp on CHO cells stably expressing hERG
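Also: peak tail current of the secondary pulse compared with the same well before compound.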

human ether-à-go-go-related gene (hERG) potassium channel, sequence (Q12809 whole entry, looked up): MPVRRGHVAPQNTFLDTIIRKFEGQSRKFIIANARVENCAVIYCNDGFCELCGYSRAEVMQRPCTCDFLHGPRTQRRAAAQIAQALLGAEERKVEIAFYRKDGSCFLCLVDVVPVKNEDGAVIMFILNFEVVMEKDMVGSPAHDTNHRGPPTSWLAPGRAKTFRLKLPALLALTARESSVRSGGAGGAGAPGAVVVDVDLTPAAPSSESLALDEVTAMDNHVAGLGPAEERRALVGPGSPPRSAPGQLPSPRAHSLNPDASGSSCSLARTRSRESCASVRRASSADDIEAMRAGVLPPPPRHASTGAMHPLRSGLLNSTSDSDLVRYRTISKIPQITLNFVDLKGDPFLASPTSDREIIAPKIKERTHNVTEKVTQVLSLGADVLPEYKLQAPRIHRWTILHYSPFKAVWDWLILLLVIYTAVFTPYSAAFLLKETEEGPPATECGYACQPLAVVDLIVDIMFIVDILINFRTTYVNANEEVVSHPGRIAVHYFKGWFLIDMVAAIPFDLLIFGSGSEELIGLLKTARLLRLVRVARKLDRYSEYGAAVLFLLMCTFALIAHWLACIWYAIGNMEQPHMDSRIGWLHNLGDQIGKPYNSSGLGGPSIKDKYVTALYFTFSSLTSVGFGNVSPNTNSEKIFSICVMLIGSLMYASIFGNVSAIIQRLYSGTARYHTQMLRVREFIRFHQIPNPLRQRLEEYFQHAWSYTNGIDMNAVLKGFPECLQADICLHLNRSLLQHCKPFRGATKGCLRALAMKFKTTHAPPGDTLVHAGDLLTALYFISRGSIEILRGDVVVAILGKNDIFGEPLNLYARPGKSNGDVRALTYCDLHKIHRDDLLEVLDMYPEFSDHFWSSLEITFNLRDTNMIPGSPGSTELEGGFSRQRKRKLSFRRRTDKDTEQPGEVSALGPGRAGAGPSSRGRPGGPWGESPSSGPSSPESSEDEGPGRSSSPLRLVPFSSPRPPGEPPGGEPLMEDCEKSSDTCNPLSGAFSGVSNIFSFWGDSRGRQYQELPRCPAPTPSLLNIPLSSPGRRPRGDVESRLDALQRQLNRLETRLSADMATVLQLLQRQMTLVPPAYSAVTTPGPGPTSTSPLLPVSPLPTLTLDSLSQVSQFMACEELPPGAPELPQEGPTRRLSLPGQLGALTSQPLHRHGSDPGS

Structure (SMILES)	hERG current change (%, negative = inhibition) at 10uM [%]
COc1ccccc1N1CCN(/N=C/c2cccc(O)c2)CC1	5.78
CC1CCCC(NC(=O)CN(C)S(=O)(=O)c2cnc[nH]2)C1C (stereo not shown)	25.5
Cc1ccc(C)c(NC(=O)Cn2ccn(-c3ccc4c(c3)OCO4)c(=O)c2=O)c1	9.83
COc1ccccc1CNC(=O)COC(=O)c1cnccn1	3.3
Cc1nc(CC(=O)N2CCN(c3cccc(C)c3C)CC2)cs1	1.31
COc1ccc(CC(=O)OCC(=O)NC(=O)NC23CC4CC(CC(C4)C2)C3)cc1	-28.7
CC(C)CCC1(CN2CCCC2=O)C(=O)NC(=O)NC1=O	9.34
c1ccc(-c2ccc(OCCCn3cncn3)cc2)cc1	-38
CCOc1cc(S(=O)(=O)NC2CCCC2)ccc1Cl	11
CCOc1ccccc1N1CCN(C(=O)Cc2ccc(S(=O)(=O)N3CCOCC3)s2)CC1	-43.9
c1ccc(COc2nsnc2N2CCOCC2)cc1	6.37
COc1ccc(OCC(=O)OCCNC(=O)c2cccnc2)cc1.Cl	10.1
CN(Cc1ccccc1)S(=O)(=O)c1ccc(OCC(=O)N2CCOCC2)cc1	-26.6
CN1CCN(C(=O)c2ccc3c(c2)NC(=O)C(C)(C)O3)CC1	-9.4
COc1ccccc1CNC(=O)C(=O)NCC(c1ccco1)N1CCOCC1 (stereo not shown)	6.23
COc1ccc(CCNC2CCCCC2)cc1OC.Cl	4.48
CCc1nc(SCC(=O)Nc2nnc(CC(C)C)s2)n[nH]1	21.8
Cc1cc(C)c(NC(=O)CNC(=O)c2ccc(-n3cncn3)c([N+](=O)[O-])c2)c(C)c1	-12.8
CC(C)NC(=O)NC(=O)CN1C(=O)NC2(CCc3ccccc3C2)C1=O (stereo not shown)	1.84
O=C(CCN1CCCC1=O)NC1CCCc2c1cnn2-c1ccccc1F (stereo not shown)	6
CCN1C(=O)c2cccc3c(S(=O)(=O)Nc4ccc(O)c(C(=O)O)c4)ccc1c23	22.9
CC1CCCN(C(=O)Cn2cnc3c2c(=O)n(C)c(=O)n3C)C1 (stereo not shown)	9.85

Structure (SMILES)	hERG current change (%, negative = inhibition) at 10uM [%]
CC(C)CCSc1nc2c(c(=O)[nH]c(=O)n2C)n1CCc1ccccc1	1.17
Cc1ccc(C)c(Nc2nc3ccccc3n3cnnc23)c1	-0.791
COc1cc(Cn2nnc3ccccc32)cc(Br)c1O	3
O=C(c1cc([N+](=O)[O-])cc([N+](=O)[O-])c1)N(Cc1nnc(-c2ccccc2Cl)o1)C1CC1	-36.8
CC(/C=C1\SC(=S)N(CC(=O)N2CCN(c3ccccc3)CC2)C1=O)=C\c1ccccc1	0.119
CCOC(=O)C1CCN(C(=O)c2cccc(C(=O)N3CCC(C(=O)OCC)CC3)c2)CC1	4.75
COc1cc(NS(=O)(=O)c2ccc(OC)c(OC)c2)cc(OC)c1	-7.03
Cn1c(C(=O)N[C@@H](Cc2ccccc2)C(=O)NCCC(=O)O)cc2cc(Cl)ccc21	0.651
O=C(Nc1ccc(C(F)(F)F)cc1)c1ccc2nc[nH]c2c1	6.65
Cc1cccc(CC(=O)N2CCN(C(=O)c3ccco3)CC2)c1	2.39
Cc1[nH]c2ccccc2c1C(=O)CN1C(=O)C(=O)N(CCC2=CCCCC2)C1=O	-11
Oc1ccc(N2CCN(C(=S)NCCc3ccccc3)CC2)cc1	-2.75
Cc1cnc(CN(C)Cc2c(C(=O)N3CCc4ccccc4C3)nc3ccc(Cl)cn23)[nH]1	-62.6
CCN(CC(=O)Nc1ccc(NC(C)=O)cc1)C(=O)CSC(=S)N1CCCC1	12.2
COCCN(C(=O)CN1CCN(S(=O)(=O)c2ccc(F)cc2)CC1)c1c(N)n(Cc2ccccc2)c(=O)[nH]c1=O	20.5
Cc1c(NC(=O)c2ccccc2NS(=O)(=O)c2ccc(Br)cc2)c(=O)n(-c2ccccc2)n1C	-1.11
COc1ccc(/C=N/NC(=O)c2c(C)nc3ccccn23)cc1[N+](=O)[O-]	6.86
CC(/C=N/n1c(-c2cccnc2)n[nH]c1=S)=C\c1ccccc1	2.43
CCCC(=O)N(c1ccc(C(=O)O)cc1)c1nc(-c2ccccc2)c(C)s1	14.2
O=C(CNC(=O)N1CC(=O)Nc2ccccc21)NCCc1ccc(Cl)cc1	1.94
CCOC(=O)c1c(S(=O)(=O)NCC(=O)Nc2cccc(F)c2)c(C)n(C)c1C	7.4
